Assay results published in PubChem BioAssay AID488969 (Vanderbilt High Throughput Screening Facility, 2010).
The full ranking holds about 110,000 compounds; the median of “z-score” is about -0.1, and the highest 2% start at about 2. This is one part of the list. The source made the active and inactive calls.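 How the source made its calls: active means z-score in the third read window above 3 or below -3; inactive means the rest.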

What follows are compounds tested against Metabotropic glutamate receptor 8 (Rattus norvegicus) (UniProt P70579) (assay: mGluR8 Gi/Go-coupled signaling modulation – cell-based, rat, thallium flux, HTS, primary screen (AID 488969)). Conditions: HEK293 rat mGluR8, GIRK (G protein-gated inwardly rectifying potassium channel) thallium flux, FluoZin2; at 10 µM; stronger effect = higher value; submaximal glutamate (EC20) added with thallium.
UniProt P70579, sequence (P70579 whole entry, looked up): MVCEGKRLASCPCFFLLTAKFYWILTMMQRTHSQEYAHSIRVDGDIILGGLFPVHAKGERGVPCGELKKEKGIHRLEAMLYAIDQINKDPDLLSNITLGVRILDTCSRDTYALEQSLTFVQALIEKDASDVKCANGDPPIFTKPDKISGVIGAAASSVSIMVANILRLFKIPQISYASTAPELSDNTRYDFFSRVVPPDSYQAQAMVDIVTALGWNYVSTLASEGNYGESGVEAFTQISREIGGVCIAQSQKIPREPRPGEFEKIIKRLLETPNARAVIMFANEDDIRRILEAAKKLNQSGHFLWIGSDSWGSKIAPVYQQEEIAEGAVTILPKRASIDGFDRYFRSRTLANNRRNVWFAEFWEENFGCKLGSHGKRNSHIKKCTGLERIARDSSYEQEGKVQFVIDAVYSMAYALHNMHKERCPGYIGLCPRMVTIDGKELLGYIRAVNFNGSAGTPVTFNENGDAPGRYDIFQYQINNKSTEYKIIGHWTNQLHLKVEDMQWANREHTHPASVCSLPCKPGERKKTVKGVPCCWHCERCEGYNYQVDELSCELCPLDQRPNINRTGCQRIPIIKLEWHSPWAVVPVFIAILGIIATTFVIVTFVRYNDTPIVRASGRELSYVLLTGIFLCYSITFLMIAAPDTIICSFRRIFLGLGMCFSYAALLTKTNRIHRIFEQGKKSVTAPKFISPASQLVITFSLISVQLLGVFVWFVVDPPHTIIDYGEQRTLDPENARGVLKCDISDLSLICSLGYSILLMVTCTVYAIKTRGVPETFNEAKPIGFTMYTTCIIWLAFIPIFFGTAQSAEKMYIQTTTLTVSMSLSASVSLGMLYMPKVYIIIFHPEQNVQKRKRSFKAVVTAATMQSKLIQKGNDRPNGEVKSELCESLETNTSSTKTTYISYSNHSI

Row | SMILES | z-score
1 | Cc1ccc(C)n1NC(=O)c1cccs1 | -0.0904
2 | Cc1cccc2cc3c(N)c(C(=O)Nc4ccc(N5CCOCC5)cc4)sc3nc12 | -0.216
3 | O=[N+]([O-])c1ccc(NCc2ccccn2)nc1 | -0.134
4 | CCC(CC)c1nnc(NC(=O)c2c(C)nn(Cc3ccccc3Cl)c2C)s1 | -1.84
5 | O=C(NCc1ccccn1)c1cc(-c2ccccc2Cl)on1 | 0.636
6 | CSc1nc2ccc(NC(=O)c3cc4ccccc4o3)cc2s1 | -0.275
7 | CCN(CC)C(=S)SCC(=O)Nc1nc(-c2ccccc2)c(-c2ccccc2)o1 | -0.0668
8 | CC(C)(C)NC(=O)CN(C(=O)CSc1nnc(COc2ccccc2)o1)c1cccc(F)c1 | -0.205
9 | CNCCOc1nc(N2CCOCC2)nc(C)c1[N+](=O)[O-] | -0.132
10 | CN(C)CCn1c(C(=O)O)cc2ccccc21 | -0.0606
11 | N#CC12CCCCC1CC1CCCCC1(C#N)N2CCO (configuration not stated) | 0.34
12 | CCC(=O)Nc1ccc(-c2nnc(SCc3ccc(C(=O)Nc4nccs4)cc3)n2CC)cc1 | 0.429
13 | CCc1c(C)c2c(C)nn(-c3ccccc3)c2[nH]c1=O | -0.132
14 | Cc1ccc(NC2CC(=O)N(c3ccc(N4CCCCC4)cc3)C2=O)cc1 (configuration not stated) | -0.166
15 | CCOC(=O)CSc1nc2c(c(=O)n(C)c(=O)n2C)n1Cc1ccccc1F | -0.721
16 | CCC(CC)C1=NN2C(=N)/C(=C\c3cc(C)n(-c4cccc(C)c4)c3C)C(=O)N=C2S1 | 0.818
17 | c1cc2c3c(cccc3c1)C(N1CCCCCC1)=N2 | 0.822
18 | Cc1ccc(C)c(OCCCN2CCCC2)c1 | 0.12
19 | Cc1ccc(/C=N/NC(=O)Cn2cnc3ccccc32)o1 | 0.381
20 | O=c1onc(-c2cccs2)n1Cc1ccccc1 | -0.199
21 | COc1ccc(-c2ccc(-c3noc(-c4ccccc4)n3)c(OC)n2)cc1 | -0.311
22 | O=C(Nc1cc(C(F)(F)F)ccc1N1CCOCC1)c1cccnc1 | 0.396
23 | CCOc1ccc(S(=O)(=O)N(C)c2ccc(OCC(=O)N3CCOCC3)cc2)cc1 | -0.25
24 | Nc1ncnc(N(c2ccccc2)C2CCCCC2)c1[N+](=O)[O-] | -0.0729

Row | SMILES | z-score
25 | COc1ccc(C(=O)NNC(=O)c2ccncc2)cc1 | 1.57
26 | COc1cc(N(C(=O)Cc2cccs2)C(C(=O)NC2CCCCC2)c2ccc(C)cc2)ccc1-n1cnnn1 (configuration not stated) | 0.0695
27 | COc1ccc(C(NC(=O)N2CC(C)OC(C)C2)C(Cl)(Cl)Cl)cc1F (configuration not stated) | -0.3
28 | O=C(CC(NC(=O)c1ccccc1)c1ccccc1)Nc1cccc2ccccc12 (configuration not stated) | -0.0391
29 | CNc1oc(-c2ccc(C)cc2)nc1P(=O)(c1ccccc1)c1ccccc1 | -1.27
30 | CC(Cc1ccccc1)NC(=O)/C=C/c1ccc([N+](=O)[O-])cc1 (configuration not stated) | -0.199
31 | Cc1ccc(C)c(C(=O)Cn2ncc(Cl)c(Cl)c2=O)c1 | 0.8
32 | CCn1c(CNc2ccc(Cl)cc2)nnc1SCc1ccccc1 | -0.438
33 | CN(C)c1ccc(C(=O)/C=C/c2ccc(Br)cc2)cc1 | 0.0539
34 | Cc1ccc(/C=C/C(=O)Nc2sc(C)c(C)c2C(=O)OC(C)C)o1 | -0.328
35 | CC(C)(C)C(=O)NC(=S)NNC(=O)c1sc2ccccc2c1Cl | active: 13.7
36 | CC(C)OP(=O)(OC(C)C)C(O)c1ccc2c(c1)OCO2 (configuration not stated) | -0.272
37 | O=C(O)C1C2C=CC(O2)C1C(=O)Nc1ccc(S(=O)(=O)N2CCc3ccccc32)cc1 (configuration not stated) | -0.0204
38 | O=c1cc(CO)oc(C(Nc2ccccn2)c2ccc(C(F)(F)F)cc2)c1O (configuration not stated) | 0.285
39 | Cc1nn(S(=O)(=O)c2cccs2)c(C)c1Sc1ccc([N+](=O)[O-])cc1 | -0.00271
40 | Cc1c(NC(=O)OCCSc2nc(N(C)C)nc(N(C)C)n2)sc(=S)n1C | -0.259
41 | Cn1c2ccc(CC(=O)O)cc2c2cc(CC(=O)O)ccc21 | -0.262
42 | COc1ccc(C(=O)C[n+]2ccc3c(c2)nc(-c2ccccc2)n3C)cc1 | 0.249
43 | Cn1nccc1C(=O)Nc1ccc(OC(=O)c2ccnn2C)cc1 | 0.139
44 | Cc1cc(C)c(-c2cc(C(F)(F)F)no2)c(=O)[nH]1 | 0.0168
45 | O=[N+]([O-])c1ccccc1S(=O)(=O)N1CCCCC1 | 0.536
46 | CCN(CC)CCn1c(NCc2ccc(OC)cc2)nc2ccccc21 | 0.937
47 | CC(=Nc1ccc(C)cc1)c1sc2ccccc2c1O | 0.0505
48 | CCOC(=O)N1CCC2(O)CCCCC2C1c1ccc(F)cc1 (configuration not stated) | -0.478

Row | SMILES | z-score
49 | Cc1ccc(C(=O)CC(=O)COc2ccc(Cl)cc2)cc1 | active: 5.07
50 | COc1ccc(C(=O)Oc2ccc3c(c2)OCO3)cc1OC | 0.246
51 | C=CCNC(=S)N/N=C(\C)c1cc(OC)c(OC)c(OC)c1 | -0.183
52 | CC(C)Cn1c(-c2ccc(F)cc2)n[nH]c1=S | 0.522
53 | COc1ccc(NC(=O)c2ccc(F)cc2)cc1S(=O)(=O)Nc1cc(C)ccc1Br | 0.11
54 | Clc1ccc(Cn2ncc3c(N4CCCC4)ncnc32)cc1 | -0.709
55 | O=C1CN(C(=O)COc2ccccc2F)c2ccccc2N1 | -0.0686
56 | CCC(c1nc2ccccc2c(=O)n1CCCn1ccnc1)N1C(=O)c2ccccc2C1=O (configuration not stated) | 0.431
57 | CCOC(=O)C1=C(C)NC(=O)C1(NC(=O)c1cccnc1)C(F)(F)F (configuration not stated) | -0.663
58 | CCc1ccc(/C=C/C(=O)C2C(=O)c3ccccc3C2=O)cc1 | active: 3.92
59 | COc1ccccc1C1C2=C(COC2=O)Nc2cc3c(cc21)OCO3 (configuration not stated) | -0.0142
60 | Cn1cccc1CC(=O)N/N=C\c1c2ccccc2cc2ccccc12 | -0.172
61 | Cc1ccc(C(=O)Nc2cc([N+](=O)[O-])ccc2F)s1 | 0.0378
62 | CCOCCCn1c(SCC(=O)NC(C)C)nc2ccccc2c1=O | 0.328
63 | CCc1ccccc1N(C)C(=O)CCc1nc(-c2ccc(C)cc2)no1 | 2.44
64 | O=C(CCCOc1ccc(Cl)cc1Cl)NN1CCOCC1 | -0.177
65 | COc1ccc(Br)cc1/C=C/C(=O)Nc1ccc(C)cc1 | -0.218
66 | Cc1nn2cc(-c3ccc(Cl)cc3)nc2s1 | -0.0344
67 | C/C(=C(\C#N)C(=O)NCc1ccccc1)N(C)C | -0.0804
68 | O=C(Nc1cc(N2CCOCC2)ncn1)Nc1cccc2ccccc12 | 0.125
69 | O=C(COC(=O)c1ccc(S(=O)(=O)Nc2ccccc2)cc1)NCCN1C(=O)CSC1=O | 0.478
70 | O=S(=O)(N/N=C/c1cccc(OC2CSC2)c1)c1ccccc1 | -0.554
71 | COc1ccc(-c2c(C)nn3c(N4CCC5(CC4)OCCO5)cc(C)nc23)cc1OC | -0.26
72 | CCCCOc1ccc(C2(C(=O)O)CCCC2)cc1 | -0.112
